Test results published in patent US9809623B2, “α4β7 peptide monomer and dimer antagonists” (Protagonist Therapeutics, Inc., priority 2014, dated 2017).
Where two headings read alike, the source gives them in different places. Part of at least one peptide drawing is inferred or uncertain, most often the ends. At least one compound was matched to its structure with a doubt left. Numbered stars: 1 amine (or outer) side, 2 acyl side, 3 side chain; on linkers, the order of the positions; unused ones are H or OH. Bridge positions count the residues as written; N and C are the ends. Square brackets hold non-standard residues; d marks the D form. Peptide text beside a SMILES is read from it. I, II: the chains in the order shown. X1 = O=C(CCOCCOCCOCCOCCOCCOCCOCCOCCOCCOCCOCCOCCOCCOCCOCCOCCOCCOCCOCCOCCOCCOCCOCCOCCOCCOCCC(=O)[*:2])[*:1]; Phe(4-tBu) = CC(C)(C)c1ccc(C[C@H](N)C(=O)O)cc1; Diglycolyl = O=C(COCC(=O)[*:2])[*:1]; NMeR = CN[C@@H](CCCNC(=N)N)C(=O)O; NMeK = CN[C@@H](CCCCN)C(=O)O; Pen = CC(C)(S)[C@H](N)C(=O)O

What was measured:
α4β7 = α4β7 (Homo sapiens, UniProt P13612+P26010); assay: α4β7-MAdCAM Cell Adhesion Assay (RPMI 8866 human cells); format: cell-based; set-up: host or cells: RPMI 8866 human B lymphoblastoid cells
Method in brief: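 Washed RPMI 8866 cells (200,000/well) in DMEM with 0.1% BSA, 10 mM HEPES pH 7, 1 mM MnCl2 adhered to rh MAdCAM-1/Fc-coated wells with serially diluted peptides, 30-45 min at 37 °C. After three washes, bound cells quantified by MTT, A570, cell-free background subtracted for dose response.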

α4β1 = target: T1, α4β1 (Homo sapiens, UniProt P05556+P13612, DEL729-798); assay: α4β1-VCAM Competition ELISA; format: binding
T1 construct: purchased R&D Systems 5668-A4
Procedure: A Nunc MaxiSorp plate was coated with rh VCAM-1/CD106 Fc chimera (R&D #862-VC) at 400 ng/well in 50 ul per well in 1×PBS and incubated overnight at 4° C. The solution was removed by shaking and then blocked with 250 ul of 1% BSA in 1×PBS per well. The wells were then incubated at room temperature for 1 hr with shaking. Each well was then washed once with wash buffer (50 mM Tris-HCl pH7.6, 100 mM NaCL, 1 mM MnCl2 or MgCl2, 0.05% Tween-20). 25 ul of serial dilutions of peptides starting at 200 μM in assay buffer (Assay buffer: 50 mM Tris-HCl pH7.6, 100 mM NaCl, 1 mM MnCl2 or MgCl2, 0.05% Tween-20) was added to each well. Additionally, 25 ul of α4β1 (R&D Systems #5668-A4) was added to each well at a fixed concentration of 120 nM. The final peptide and α4β1 concentrations were 100 μM and 60 nM, respectively. The plates were then incubated at 37° C. for 2 hr. The solution was then removed by shaking, and each well was washed three times with wash buffer. 50 ul of 9F10 antibody at 4 ug/ml (purified mouse anti-human CD49d, BD Bioscience Cat#555502) was then added to each well, and the plate was incubated at room temperature for 1 hr with shaking. The solution was again removed by shaking, and each well was washed three times with wash buffer. 50 ul of peroxidase-conjugated AffiniPure Goat anti-mouse IgG (Jackson immune research cat #115-035-003) diluted in 1:5000 in assay buffer was added to each well. The plate was incubated at room temperature for 30 min with shaking. Each well was then washed 3 times with wash buffer. 100 ul of TMB was then added to each well and closely observe during developing time. The reaction was stepped with 2N H2SO4 and absorbance was read at 450 nm.

rh integrin α4β7 = target: T2, rh integrin α4β7 (Homo sapiens, UniProt P13612+P26010); assay: α4β7-MAdCAM Competition ELISA; format: binding
T2 construct: purchased R&D Systems 5397-A30
Procedure: A nickel coated plate (Pierce #15442) was coated with rh integrin α4β7 (R&D Systems #5397-A30) at 800 ng/well and incubated at room temperature with shaking for 1 hr. The solution was then removed by shaking and blocked with assay buffer (50 mM Tris-HCl pH7.6, 150 mM NaCl, 1 mM MnCl2 or MgCl2, 0.05% Tween-20 and 0.5% BSA) at 250 ul/well. The plate was then incubated at room temperature for 1 hr. Each well was washed 3 times with wash buffer (50 mM Tris-HCl pH7.6, 100 mM NaCl, 1 mM MnCl2 or MgCl2, 0.05% Tween-20). To each well was added 25 ul of a serial dilution (3-fold dilutions in assay buffer) of peptide starting at 20 μM. 25 ul of recombinant human MAdCAM-1 (R&D Systems #6056-MC) was then added to each well at a fixed concentration 20 nM. The final starting peptide concentration was 10 μM, and the final MAdCAM-1 concentration was 10 nM. The plates were then incubated at room temperature for 1 hr to reach binding equilibrium. The wells were then washed three times with wash buffer. 50 ul of mouse anti-human IgG1-HRP (Invitrogen # A10648) diluted in 1:2000 in assay buffer was then added to each well. The wells were incubated at room temperature for 45 min with shaking. The wells were then washed 3 times with wash buffer. 100 ul of 3,3′,5,5′-Tetramethylbenzidine (TMB) were then added to each well and closely observe during development time. The reaction was stopped with 2N H2SO4 and absorbance was read at 450 nm.
TMB is a chromogenic substrate suitable for use in ELISA procedures, which utilize horseradish peroxidase conjugates. This substrate produces a soluble end product that is blue in color and can be read spectrophotometrically at 370 or 655 nm. The reaction maybe stopped with 2 M H2S04, resulting in a yellow solution that is read at 450 nm. Each tablet contains 1 mg of TMB substrate. To prepare TMB Substrate Solution, dissolve one 3,3′,5,5′-tetramethylbenzidine tablet in 1 ml of DMSO and add to 9 ml of 0.05 M Phosphate-Citrate Buffer, pH 5.0. Add 2 μl of fresh 30% hydrogen peroxide (Product No. H 1009) per 10 ml of substrate buffer solution, immediately prior to use.

[1] = Table 4-B, read-out: Cell Adhesion α4β7 IC50
[2] = Table 4-B, read-out: ELISA_α4β1 IC50
[3] = Table 4-B, read-out: ELISA α4β7 IC50

Sequence of α4β7 (P13612 34-1032): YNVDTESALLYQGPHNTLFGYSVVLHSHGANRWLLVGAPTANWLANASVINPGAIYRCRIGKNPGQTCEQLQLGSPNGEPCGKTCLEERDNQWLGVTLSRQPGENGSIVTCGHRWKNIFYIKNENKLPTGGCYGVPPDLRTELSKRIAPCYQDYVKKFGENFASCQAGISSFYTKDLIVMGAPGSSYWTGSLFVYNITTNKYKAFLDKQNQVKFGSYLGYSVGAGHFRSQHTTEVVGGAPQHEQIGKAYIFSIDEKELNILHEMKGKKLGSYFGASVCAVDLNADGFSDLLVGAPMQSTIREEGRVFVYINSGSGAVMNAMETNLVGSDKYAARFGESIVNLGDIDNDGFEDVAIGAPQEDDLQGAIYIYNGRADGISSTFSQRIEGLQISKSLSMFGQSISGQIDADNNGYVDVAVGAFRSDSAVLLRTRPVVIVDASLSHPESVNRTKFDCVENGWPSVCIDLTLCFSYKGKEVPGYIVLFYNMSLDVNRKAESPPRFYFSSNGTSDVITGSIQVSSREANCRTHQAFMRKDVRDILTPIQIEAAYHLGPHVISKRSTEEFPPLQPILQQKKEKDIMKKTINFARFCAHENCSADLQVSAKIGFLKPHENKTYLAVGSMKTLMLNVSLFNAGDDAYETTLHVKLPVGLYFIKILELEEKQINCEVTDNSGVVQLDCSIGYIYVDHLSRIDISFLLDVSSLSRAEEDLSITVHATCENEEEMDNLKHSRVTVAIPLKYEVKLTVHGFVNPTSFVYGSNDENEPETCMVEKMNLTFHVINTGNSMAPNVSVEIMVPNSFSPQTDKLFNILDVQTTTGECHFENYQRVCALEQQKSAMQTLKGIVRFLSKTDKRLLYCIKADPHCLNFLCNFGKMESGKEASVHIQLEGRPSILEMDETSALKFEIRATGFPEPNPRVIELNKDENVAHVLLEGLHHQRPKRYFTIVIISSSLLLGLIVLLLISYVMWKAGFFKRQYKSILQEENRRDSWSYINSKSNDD
Sequence of α4β7 (P26010 20-798): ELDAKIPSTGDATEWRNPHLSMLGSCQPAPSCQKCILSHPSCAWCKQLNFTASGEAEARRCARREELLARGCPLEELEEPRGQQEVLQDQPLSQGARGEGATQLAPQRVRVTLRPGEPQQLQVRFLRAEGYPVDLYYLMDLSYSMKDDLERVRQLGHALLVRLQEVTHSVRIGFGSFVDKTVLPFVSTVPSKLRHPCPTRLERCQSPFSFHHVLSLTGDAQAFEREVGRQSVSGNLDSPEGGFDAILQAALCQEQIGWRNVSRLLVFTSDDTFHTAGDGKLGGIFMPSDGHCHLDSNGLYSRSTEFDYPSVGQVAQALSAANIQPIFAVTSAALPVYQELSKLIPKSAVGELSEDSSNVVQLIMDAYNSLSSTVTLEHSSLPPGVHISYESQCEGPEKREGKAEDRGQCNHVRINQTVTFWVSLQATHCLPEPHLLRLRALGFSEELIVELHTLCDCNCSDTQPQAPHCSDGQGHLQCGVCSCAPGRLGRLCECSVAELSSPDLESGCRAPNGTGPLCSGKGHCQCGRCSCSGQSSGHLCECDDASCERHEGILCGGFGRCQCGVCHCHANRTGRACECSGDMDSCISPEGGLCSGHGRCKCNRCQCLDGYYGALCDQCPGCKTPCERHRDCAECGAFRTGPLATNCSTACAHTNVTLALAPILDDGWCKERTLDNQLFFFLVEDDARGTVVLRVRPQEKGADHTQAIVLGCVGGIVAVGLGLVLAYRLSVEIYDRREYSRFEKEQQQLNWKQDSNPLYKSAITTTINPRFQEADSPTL
T1 sequence (P13612 34-977 limits assumed, stated change not applied): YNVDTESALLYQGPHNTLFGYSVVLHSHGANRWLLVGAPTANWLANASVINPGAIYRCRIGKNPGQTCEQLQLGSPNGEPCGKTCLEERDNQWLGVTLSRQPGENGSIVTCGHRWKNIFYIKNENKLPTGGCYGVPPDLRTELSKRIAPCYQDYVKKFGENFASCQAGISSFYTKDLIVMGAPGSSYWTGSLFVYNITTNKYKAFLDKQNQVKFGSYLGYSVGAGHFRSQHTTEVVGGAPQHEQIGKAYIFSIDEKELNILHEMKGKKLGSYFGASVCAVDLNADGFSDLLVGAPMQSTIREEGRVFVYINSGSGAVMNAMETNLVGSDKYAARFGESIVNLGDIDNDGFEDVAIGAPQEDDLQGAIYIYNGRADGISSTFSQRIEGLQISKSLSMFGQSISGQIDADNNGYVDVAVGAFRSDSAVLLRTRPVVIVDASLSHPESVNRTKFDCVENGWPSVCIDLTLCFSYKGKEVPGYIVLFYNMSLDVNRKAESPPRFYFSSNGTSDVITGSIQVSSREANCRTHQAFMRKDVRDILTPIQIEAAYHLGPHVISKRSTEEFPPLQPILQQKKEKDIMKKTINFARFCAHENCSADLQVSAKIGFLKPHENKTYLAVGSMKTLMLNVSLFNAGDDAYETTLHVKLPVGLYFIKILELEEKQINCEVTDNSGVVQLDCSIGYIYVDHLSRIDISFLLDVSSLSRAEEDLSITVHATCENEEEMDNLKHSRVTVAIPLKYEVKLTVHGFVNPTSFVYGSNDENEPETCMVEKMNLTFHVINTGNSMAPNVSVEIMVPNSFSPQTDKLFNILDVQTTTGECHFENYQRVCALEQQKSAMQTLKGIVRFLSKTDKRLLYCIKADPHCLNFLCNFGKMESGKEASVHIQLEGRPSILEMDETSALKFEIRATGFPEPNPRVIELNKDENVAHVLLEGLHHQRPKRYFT
T1 sequence (P05556 21-728 limits assumed, stated change not applied): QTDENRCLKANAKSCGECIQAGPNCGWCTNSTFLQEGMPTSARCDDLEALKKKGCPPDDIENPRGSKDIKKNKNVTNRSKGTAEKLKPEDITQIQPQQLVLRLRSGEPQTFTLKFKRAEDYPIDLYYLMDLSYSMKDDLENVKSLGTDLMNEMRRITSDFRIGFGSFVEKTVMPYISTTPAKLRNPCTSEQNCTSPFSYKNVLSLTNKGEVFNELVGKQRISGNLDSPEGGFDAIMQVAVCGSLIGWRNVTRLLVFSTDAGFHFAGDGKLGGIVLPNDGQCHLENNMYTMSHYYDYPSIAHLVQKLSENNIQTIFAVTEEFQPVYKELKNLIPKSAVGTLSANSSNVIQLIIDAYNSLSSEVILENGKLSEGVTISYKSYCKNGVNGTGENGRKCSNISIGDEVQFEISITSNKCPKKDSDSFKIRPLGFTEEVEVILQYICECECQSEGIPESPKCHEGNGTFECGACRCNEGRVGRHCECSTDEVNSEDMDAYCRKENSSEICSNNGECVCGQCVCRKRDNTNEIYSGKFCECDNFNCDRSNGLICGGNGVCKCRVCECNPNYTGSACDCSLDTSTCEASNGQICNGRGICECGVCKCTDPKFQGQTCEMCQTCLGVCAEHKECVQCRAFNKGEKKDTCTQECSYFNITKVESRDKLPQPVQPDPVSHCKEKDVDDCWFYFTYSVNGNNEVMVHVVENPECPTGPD
T2 sequence (P13612 34-977 limits assumed): as the sequence (P13612 34-977 limits assumed, stated change not applied) above
T2 sequence (P26010 20-723 limits assumed): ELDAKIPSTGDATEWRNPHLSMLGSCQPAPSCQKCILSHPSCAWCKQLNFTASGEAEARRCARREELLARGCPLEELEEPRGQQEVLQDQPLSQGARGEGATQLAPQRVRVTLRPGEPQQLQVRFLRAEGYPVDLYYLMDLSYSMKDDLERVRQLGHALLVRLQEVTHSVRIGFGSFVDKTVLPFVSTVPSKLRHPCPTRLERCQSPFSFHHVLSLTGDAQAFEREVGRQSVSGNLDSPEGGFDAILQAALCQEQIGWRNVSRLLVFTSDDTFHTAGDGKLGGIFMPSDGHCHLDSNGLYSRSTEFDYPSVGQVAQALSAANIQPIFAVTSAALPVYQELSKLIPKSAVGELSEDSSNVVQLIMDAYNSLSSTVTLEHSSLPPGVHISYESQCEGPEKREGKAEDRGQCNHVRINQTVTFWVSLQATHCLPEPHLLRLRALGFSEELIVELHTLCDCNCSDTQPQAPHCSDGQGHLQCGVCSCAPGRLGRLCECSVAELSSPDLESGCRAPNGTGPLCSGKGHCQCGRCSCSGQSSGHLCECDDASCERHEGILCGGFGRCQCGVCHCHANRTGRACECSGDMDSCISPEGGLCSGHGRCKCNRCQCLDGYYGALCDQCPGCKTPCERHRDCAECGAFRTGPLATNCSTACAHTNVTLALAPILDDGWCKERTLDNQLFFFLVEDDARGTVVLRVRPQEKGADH

Row | SMILES | IC50 (α4β7; Table 3-B, Potency (α4β7), range classes, read-out: α4β7 cell (Hu) IC50) [nM] | IC50 (α4β1; Table 3-B, Selectivity (α4β1), range classes, read-out: α4β1 ELISA IC50) [nM] | IC50 (rh integrin α4β7; Table 3-B, Potency (α4β7), range classes, read-out: α4β7 ELISA IC50) [nM] | IC50 (α4β7; [1]) [nM] | IC50 (α4β1; [2]) [nM] | IC50 (rh integrin α4β7; [3]) [nM]
1 | CC(=O)N[C@@H]1C(=O)N(C)[C@@H](CCCNC(=N)N)C(=O)N[C@@H](CO)C(=O)N[C@@H](CC(=O)O)C(=O)N[C@@H]([C@@H](C)O)C(=O)N[C@@H](CC(C)C)C(=O)N[C@H](C(=O)N[C@@H](Cc2ccc(C(C)(C)C)cc2)C(=O)N[C@@H](CCC(=O)O)C(=O)N(C)[C@@H](CCCCNC(=O)COCC(=O)NCCCC[C@@H](C(N)=O)N(C)C(=O)[C@H](CCC(=O)O)NC(=O)[C@H](Cc2ccc(C(C)(C)C)cc2)NC(=O)[C@H]2NC(=O)[C@H](CC(C)C)NC(=O)[C@H]([C@@H](C)O)NC(=O)[C@H](CC(=O)O)NC(=O)[C@H](CO)NC(=O)[C@H](CCCNC(=N)N)N(C)C(=O)[C@@H](NC(C)=O)C(C)(C)SSC2(C)C)C(N)=O)C(C)(C)SSC1(C)C [compound 133] (I: Ac-[Pen][NMeR]SDTL[Pen][Phe(4-tBu)]E[NMeK]-NH2 / II: Ac-[Pen][NMeR]SDTL[Pen][Phe(4-tBu)]E[NMeK]-NH2; disulfide I:1-I:7, II:1-II:7; linker I:10-II:10 via Diglycolyl) | < 10 | 100 to 500 | < 10 | – | – | –
2 | CC(=O)N[C@H]1CSSC[C@@H](C(=O)N[C@@H](CCCCNC(=O)CCOCCOCCOCCOCCOCCOCCOCCOCCOCCOCCOCCOCCOCCOCCOCCOCCOCCOCCOCCOCCOCCOCCOCCOCCOCCOCCC(=O)NCCCC[C@H](NC(=O)[C@@H]2CSSC[C@H](NC(C)=O)C(=O)N(C)[C@@H](CCCNC(=N)N)C(=O)N[C@@H](CO)C(=O)N[C@@H](CC(=O)O)C(=O)N[C@@H]([C@@H](C)O)C(=O)N[C@@H](CC(C)C)C(=O)N2)C(=O)O)C(=O)O)NC(=O)[C@H](CC(C)C)NC(=O)[C@H]([C@@H](C)O)NC(=O)[C@H](CC(=O)O)NC(=O)[C@H](CO)NC(=O)[C@H](CCCNC(=N)N)N(C)C1=O [compound 200, (Ac-C-N-Me-R-S-D-T-L-C-K-OH)2-PEG25] (I: Ac-C[NMeR]SDTLCK-OH / II: Ac-C[NMeR]SDTLCK-OH; disulfide I:1-I:7, II:1-II:7 (inferred); linker I:8-II:8 via X1 (inferred)) | – | – | – | 96 | 16700 | 3
3 | CC(=O)N[C@H]1CSSC(C)(C)[C@@H](C(=O)N[C@H](CCCCNC(=O)CN(CC(=O)NCCCC[C@@H](NC(=O)[C@H]2NC(=O)[C@H](CC(C)C)NC(=O)[C@H]([C@@H](C)O)NC(=O)[C@H](CC(=O)O)NC(=O)[C@H](CO)NC(=O)[C@H](CCCNC(=N)N)N(C)C(=O)[C@@H](NC(C)=O)CSSC2(C)C)C(N)=O)C(=O)CCN)C(N)=O)NC(=O)[C@H](CC(C)C)NC(=O)[C@H]([C@@H](C)O)NC(=O)[C@H](CC(=O)O)NC(=O)[C@H](CO)NC(=O)[C@H](CCCNC(=N)N)N(C)C1=O [compound 203, (Ac-C-N-Me-R-S-D-T-L-Pen-k-NH2)2-IDA] | – | – | – | 200 | 700 | 7.5
